{
  "source": "PubChem BioAssay AID686971",
  "about": "(National Center for Advancing Translational Sciences (NCATS), 2013)",
  "note": "Hit rate of the full screen: of about 360,000 compounds, about 7,500 (2.1%) were called active. This list was built around the results that the source calls inconclusive (neither active nor inactive); the mix of calls is not that of the screen. Calls come from the whole dose curve; as a rule, active = well fitted cell-killing curve with a large enough effect; inconclusive = small, poorly fitted or top-dose-only effect, or effect the other way, or another doubt; inactive = no such curve, though single readings can be large or run the other way. No potency is given beside an inconclusive call; the fits are too rough. Potency is the fitted concentration of half-maximal effect; tags give direction and shape of the fitted curve.",
  "data": [
    {"experiment": "qHTS for induction of synthetic lethality in tumor cells producing 2HG: qHTS for the HT-1080-IDH1KD cell line;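 for activity, negative = toxicity: 0% = DMSO wells and -100% = cell-free medium wells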", "settings": "HT-1080 IDH1 knockdown viability, ATP luminescence, 48 h; activity, negative = toxicity: at 46.1 µM (top of the series) unless noted", "procedure,_shortened": "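Cytotoxicity counter-line: IDH1KD HT-1080, 48 h, CellTiter-Glo. Curves classed by r2, magnitude and activity.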", "values": [
      {"smiles": "CCCCCCc1ccc(-c2ncc(N)cn2)cc1", "Potency": "inconclusive [cytotoxic, single point]"},
      {"smiles": "Cc1c(C(=O)Nc2nc(-c3ccccn3)cs2)oc2ccccc12", "Potency": "inconclusive [cytotoxic, single point]"},
      {"smiles": "Oc1c(/C=N/Nc2cccc3cccnc23)ccc2ccccc12", "activity, negative = toxicity": "inactive: 8.74%"},
      {"smiles": "CNC(=O)C12N=CNN=C1N(C)C(=O)N2C", "note": "(configuration not stated)", "Potency": "inconclusive [rising, single point]"},
      {"smiles": "CCCCCCC(O)(c1ccc(OC)cc1)C(CN1CCOCC1)c1ccccc1", "note": "(configuration not stated)", "Potency": "inconclusive [cytotoxic, single point]"},
      {"smiles": "CC(C)Oc1ccccc1C1CC(=O)Nc2cc3c(cc21)OCO3", "note": "(configuration not stated)", "Potency": "active: 1.84 µM"},
      {"smiles": "COc1ccc(NC(=O)Nc2cccc3ccccc23)c(OC)c1", "Potency": "inconclusive [cytotoxic, single point]"},
      {"smiles": "Oc1ccc(Nc2ccc3ccccc3c2)cc1", "Potency": "inconclusive [cytotoxic, partial curve]"},
      {"smiles": "c1cnc2c(c1)ccc1cccnc12", "Potency": "active: 7.31 µM"},
      {"smiles": "CC[n+]1ccccc1/C=C/c1ccc(N(C)C)cc1", "Potency": "active: 18.4 µM"},
      {"smiles": "C[C@@H]1CN([C@@H](C)CO)C(=O)c2c(c3ccccc3n2C)-c2ccccc2CO[C@H]1CN(C)C(=O)[C@H](C)c1ccccc1", "Potency": "inconclusive [cytotoxic, single point]"},
      {"smiles": "CCn1c(=N)n(CC(=O)c2ccc(OC)c(OC)c2)c2ccccc21", "Potency": "inconclusive [cytotoxic, single point]"},
      {"smiles": "Cc1ccc(-n2nc(C)c(C(=O)Nc3cccc(C(=O)NC4CC4)c3)n2)c(C)c1", "activity, negative = toxicity": "inactive: -22.5%"},
      {"smiles": "COc1ccccc1N=Nc1nc(-c2ccccc2)c(-c2ccccc2)[nH]1", "Potency": "inconclusive [cytotoxic, single point]"},
      {"smiles": "CC1=C(C(=O)N(C(C)C)C(C)C)CC(CC(=O)NC2CCCCC2)C(=O)N1Cc1ccc(C(C)(C)C)cc1", "note": "(configuration not stated)", "Potency": "inconclusive [cytotoxic, single point]"},
      {"smiles": "COc1ccc2nc3ccccc3nc2c1N", "Potency": "inconclusive [cytotoxic, single point]"},
      {"smiles": "CCOc1ccc(C2=Nn3c(nnc3-c3ccccc3OC)SC2)cc1", "Potency": "active: 0.0103 µM"},
      {"smiles": "CCCn1c(=O)c2ccccc2n2c(=S)[nH]nc12", "activity, negative = toxicity": "inactive: 3.66%"},
      {"smiles": "O=C(Nc1ccc(F)cc1F)NC1CCN(Cc2c(F)cccc2Cl)CC1", "Potency": "inconclusive [cytotoxic, single point]"},
      {"smiles": "CN(c1cccc(F)c1)c1cc2c(c3c1ccn3C)C1CCC2O1", "note": "(configuration not stated)", "activity, negative = toxicity": "inactive: -21.5%"},
      {"smiles": "Cc1cccc(/C=N/n2c(C)nc3ccccc3c2=O)c1", "activity, negative = toxicity": "inactive: 0.353%"},
      {"smiles": "CCOC(=O)C1(C(=O)OCC)COC(=O)C1CN1Cc2cc3ccccc3nc2C1", "note": "(configuration not stated)", "Potency": "inconclusive [cytotoxic, partial curve]"},
      {"smiles": "CCOC(=O)C1CCN(C(=O)CSc2cc(=O)n(CC)c3ccccc23)CC1", "Potency": "inconclusive [cytotoxic, single point]"},
      {"smiles": "C(=N\\Nc1nncc2ccccc12)/c1ccccn1", "Potency": "active: 5.17 µM"},
      {"smiles": "COc1ccc(-c2noc(CCC(=O)NCCCN3CCC(Cc4ccccc4)CC3)n2)cc1", "Potency": "inconclusive [cytotoxic, single point]"},
      {"smiles": "Cc1ccn2cc(C(=O)Nc3ccc4c(c3)OCCO4)nc2c1", "Potency": "inconclusive [cytotoxic, partial curve]"},
      {"smiles": "Cc1cc(C)nc(NC(=O)c2cc(-c3ccc(C)s3)nc3ccccc23)c1", "activity, negative = toxicity": "inactive: -0.751%"},
      {"smiles": "N#Cc1ccccc1NC(=O)CSc1nnc(-c2ccccc2O)n1-c1ccccc1", "Potency": "inconclusive [cytotoxic, single point]"},
      {"smiles": "Cc1ccc(-c2nn3c(C)nnc3s2)cc1NCc1c(F)cccc1Cl", "activity, negative = toxicity": "inconclusive: 0% [cytotoxic]"},
      {"smiles": "CCN(CC)Cc1c(O)c(Cl)cc2c3c(c(=O)oc12)CCCC3", "activity, negative = toxicity": "inactive: 8.8%"},
      {"smiles": "COc1cc2ccccc2cc1C(=O)NCC(c1cccs1)N(C)C", "note": "(configuration not stated)", "Potency": "inconclusive [cytotoxic, single point]"},
      {"smiles": "O=S(=O)(c1cnc(Cl)c(Br)c1)N1CCc2ccccc21", "Potency": "inconclusive [cytotoxic, single point]"},
      {"smiles": "CCCCn1c(SCc2ncc(-c3ccccc3)o2)nc2cc(S(N)(=O)=O)ccc21", "Potency": "inconclusive [cytotoxic, single point]"},
      {"smiles": "CCc1cccc2c(-c3csc(=NC)n3C)c[nH]c12", "activity, negative = toxicity": "inactive: -17.7%"},
      {"smiles": "c1ccc(CN2CCN(C(c3ccccc3)c3ccccc3)CC2)cc1", "Potency": "inconclusive [cytotoxic, single point]"},
      {"smiles": "O=C(CCC(=O)c1cccs1)NNC(=O)c1cccc(Cl)c1", "activity, negative = toxicity": "inactive: -5.19%"},
      {"smiles": "CCOC(=O)c1c(NC(=O)c2ccn(CC)n2)sc2c1CCCC2", "Potency": "inconclusive [cytotoxic, single point]"},
      {"smiles": "CN(C)c1ccc(CC(=O)N2CCCC(c3cc(C(=O)Nc4ccc5c(c4)OCO5)no3)C2)cc1", "note": "(configuration not stated)", "Potency": "inconclusive [cytotoxic, partial curve]"},
      {"smiles": "O=C(Nc1nc2ccc([N+](=O)[O-])cc2s1)c1ccc(S(=O)(=O)N2CCCc3ccccc32)cc1", "Potency": "inconclusive [cytotoxic, full curve]"},
      {"smiles": "CCn1nc(C)cc1-c1nnc(Sc2ncc([N+](=O)[O-])s2)n1C", "Potency": "active: 20.6 µM"},
      {"smiles": "O=C(N/N=C/c1ccc(O)c2ncccc12)c1cccc(Br)c1", "Potency": "active: 18.4 µM"},
      {"smiles": "Cn1c(/C=C/c2ccccc2)nc2ccccc2c1=O", "Potency": "inconclusive [cytotoxic, single point]"},
      {"smiles": "C=CCOc1ccccc1CN1CCC(CO)(CCOc2ccccc2)CC1", "Potency": "inconclusive [cytotoxic, single point]"},
      {"smiles": "O=C(NC(=S)Nc1ccc(NC(=O)c2ccco2)cc1)c1ccccc1", "Potency": "inconclusive [cytotoxic, single point]"},
      {"smiles": "COc1ccc(S(=O)(=O)Nc2cc3c(cc2C(C)=O)OCO3)cc1", "Potency": "active: 18.4 µM"},
      {"smiles": "COC(=O)c1ccc(/C=N/n2cnnc2)cc1", "Potency": "inconclusive [rising, full curve, poor fit]"},
      {"smiles": "COc1ccccc1N1CCN(Cc2ccc(O)c3ncccc23)CC1", "Potency": "active: 0.158 µM"},
      {"smiles": "O=C(NCCN1C(=O)S/C(=C\\c2ccccc2F)C1=O)C1=COCCO1", "Potency": "active: 11.6 µM"},
      {"smiles": "CC(C)(C)CC(C)(C)N=C1Nc2cc(Cl)c(Cl)cc2NC12C[C@H]1CCC(=O)N3CC[C@@H](C2)[C@@H]13", "note": "(some centres not stated)", "activity, negative = toxicity": "inactive: -5.52%"},
      {"smiles": "CCOC(=O)C1=CC[C@H]2c3c(c4ccc(OC)cc4n3C)C(=O)C1N2S(=O)(=O)c1ccc(C)cc1", "Potency": "inconclusive [cytotoxic, single point]"},
      {"smiles": "Cc1nn(Cc2c(F)c(F)c(F)c(F)c2F)c(C)c1NC(=O)c1ccc(COc2ccc(Cl)cc2Cl)o1", "Potency": "inconclusive [cytotoxic, partial curve]"},
      {"smiles": "O=C(Cn1ncc(Cl)c(Cl)c1=O)Nc1ccc2c(c1)OCO2", "Potency": "active: 18.4 µM"},
      {"smiles": "COC(=O)c1ccccc1NC(=O)CSc1nc2ccsc2c(=O)n1Cc1ccc(C(=O)O)cc1", "activity, negative = toxicity": "inactive: 7.69%"},
      {"smiles": "CCOc1ccc(-c2cc(C(=O)N/N=C/c3ccc(O)cc3)c3ccccc3n2)cc1", "Potency": "active: 5.8 µM"},
      {"smiles": "CN(CC(=O)Nc1cccc(F)c1)C(=O)c1cc(-c2cccs2)nn1-c1ccccc1", "activity, negative = toxicity": "inactive: -11.7%"},
      {"smiles": "Cc1ccc(Cn2cccc2/C=N/NC(=S)Nc2ccc(C)cc2)cc1", "activity, negative = toxicity": "inconclusive: -30.6% [cytotoxic]"},
      {"smiles": "CCOC(=O)Cc1csc(NC(=O)c2sc3nc4c(C)cc(C)cc4cc3c2N)n1", "Potency": "inconclusive [cytotoxic, single point]"},
      {"smiles": "Cc1ccc2nc(N=C(N)N)nc(C)c2c1", "Potency": "inconclusive [cytotoxic, partial curve]"},
      {"smiles": "O=C(/C=C/c1ccco1)NC(=S)Nc1cc(-c2nc3ccccc3s2)ccc1Cl", "Potency": "inconclusive [cytotoxic, single point]"},
      {"smiles": "COc1cccc(/C=N/NC(=O)c2c(-c3ccccc3)noc2C)c1O", "Potency": "inconclusive [cytotoxic, full curve]"},
      {"smiles": "Cc1ccccc1C(=O)NC1CCN(CC(=O)NCc2ccc(F)cc2)CC1", "activity, negative = toxicity": "inactive: -16.5%"},
      {"smiles": "Cc1ccc(NC(=O)c2cc(-c3cc(Cl)ccc3C)n[nH]2)cc1NS(C)(=O)=O", "Potency": "inconclusive [cytotoxic, single point]"},
      {"smiles": "CCOc1cc(/C=C2\\C(=O)ON=C2C)ccc1OCc1ccccc1", "Potency": "inconclusive [cytotoxic, single point]"},
      {"smiles": "Cc1csc(NC(=O)CCc2c(C)nc3cc(-c4cccc(F)c4)nn3c2C)n1", "activity, negative = toxicity": "inactive: -4.68%"},
      {"smiles": "CCC(CC)C(=O)Nc1cc(OC)c(OC)cc1C(=O)O", "activity, negative = toxicity": "inactive: 19.9%"},
      {"smiles": "C/C(=N\\Nc1nc2ccccc2[nH]1)c1ccc(N2CCOCC2)cc1", "Potency": "inconclusive [cytotoxic, partial curve]"},
      {"smiles": "CCCCCCCCN1C(=O)[C@H](CC(=O)NCCCOCCCC)C[C@@]2(C(=O)OC)CC(C)(C)CC=C12", "Potency": "inconclusive [cytotoxic, single point]"},
      {"smiles": "COc1ccc(C(=O)Nc2c3c(nn2C(C)(C)C)CS(=O)(=O)C3)cc1OC", "Potency": "inconclusive [rising, partial curve]"},
      {"smiles": "COc1ccccc1CCC(=O)N1CCN(S(=O)(=O)c2cc(C(F)(F)F)ccc2Cl)CC1", "activity, negative = toxicity": "inactive: 3.98%"},
      {"smiles": "CCOc1ccc(S(=O)(=O)NCc2ccncc2)cc1NC(=O)c1ccccc1", "Potency": "active: 23.1 µM"},
      {"smiles": "O=C1NN(c2ccccc2)C(=O)/C1=C/c1coc2ccccc2c1=O", "activity, negative = toxicity": "inactive: -1.61%"},
      {"smiles": "CCOC(=O)c1cc(NC(=O)Nc2nc3ccccc3s2)c(C)nc1C", "Potency": "inconclusive [rising, partial curve]"}
    ]}
  ]
}
